Data: PubChem BioAssay AID1963576 (National Center for Advancing Translational Sciences (NCATS), 2024)
Hit rate of the full screen: of about 46,000 compounds, about 60 (0.1%) were called active. About 3% were inconclusive and are not listed. Calls come from the whole dose curve; as a rule, active = well fitted inhibition curve with a large enough effect; inconclusive = small, poorly fitted or top-dose-only effect; inactive = no such curve, though single readings can be large or run the other way. Some of the results follow.

Assay: Primary qHTS assay for Inhibitors of ovarian cancer metastasis using an organotypic tumor microenvironment (TME) model.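 For activity change, negative = inhibition: plate controls were DMSO wells for no effect and tomatine positive control wells for full effect.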 Note: nearly all actives have a fitted effect of over 65% in size.
Conditions: SKOV3ip1-GFP adhesion/invasion on 3D omental model, fluorescence; series mostly up to 45.8 µM; activity change, negative = inhibition: at the top concentration
Procedure, shortened: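 Adhesion/invasion was scored as fixed GFP-labeled SKOV3ip1 cell counts (488/509 nm), normalized to DMSO and tomatine controls. Cancer cells in serum-free medium, with four compound doses (0.36-46 umol/L), sat 2 hr at RT then 16 hr at 37 C on a 48 hr fibroblast/mesothelial/ECM culture.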

outcome, inactive:
CCCCCCNc1ncnc2c1sc1nc(N3CCOCC3)c3c(c12)CCCC3, COc1ccc(NC(=O)Cn2c(=O)n(CC3CCCO3)c(=O)c3ccccc32)cc1 (stereo not drawn), O=C(Nc1cccc(C(=O)N2CCN(c3ccc(F)cc3)CC2)c1)c1nsc2ccccc12, COc1ccccc1/C=C/c1nc(C#N)c(NC(C)c2ccccc2)o1 (stereo not drawn), CC(=O)c1ccc(N2CCN(C(=O)Cn3ncc4c3-c3ccccc3OC4)CC2)cc1, Cc1ccc(-n2ncc(C(=O)N3CCN(C4CCCCC4)CC3)c2C2CCN(C(=O)OC(C)(C)C)CC2)cc1, O=c1cc(COc2cccc(C(F)(F)F)c2)nc2sc3c(n12)CCCC3, Cc1ccc(NC(=O)CN2CCN(C3CCCCC3)C(=O)C2=O)cc1, Cc1ccc(-c2nsc(NC(=O)c3oc4cc(C)c(Cl)cc4c3C)n2)cc1, CCOC(=O)N1CCC(NC(=O)c2cnn(-c3cccc(C)c3)c2C2CCN(C(=O)OC(C)(C)C)CC2)CC1, Cc1ccc(-n2nc(CO)c(C(=O)NCCO)n2)cc1, CCOC(=O)c1ccc(N2C(=O)c3n[nH]c(C)c3C2c2ccc(C(C)C)cc2)cc1 (stereo not drawn), O=C(OCC1CCCO1)c1ccc2c(c1)N(Cc1ccc(F)cc1)C(=O)c1ccccc1S2(=O)=O (stereo not drawn), Cc1ccc(Cl)cc1NC(=O)N1CCC(CN2CCc3ccccc3C2)CC1, Cc1ccc(S(=O)(=O)N(CC(O)Cn2c3ccccc3c3ccccc32)c2cccc(C(=O)NCCO)c2)cc1 (stereo not drawn), CCC(Cn1nnc2ccccc2c1=O)NC(=O)Nc1ccccc1Cl (stereo not drawn), CCc1ccccc1NC(=O)c1ccc(F)c(S(=O)(=O)N2CCN(c3ccccc3OC)CC2)c1, CC(=O)c1ccc(NC(=O)c2cc3c(=O)oc4ccc(C)cc4c3s2)cc1, O=C(Nc1nc2c(F)cccc2s1)c1ccc2c(c1)OCCO2, Cc1cccc(N2C(=O)C(CC(=O)Nc3cccc(F)c3)N(CCc3ccncc3)C2=O)c1 (stereo not drawn), O=C(COc1ccc(F)cc1)Nc1ccc2nc(SCCOc3ccccc3)sc2c1

Activity change, negative = inhibition, inactive:
O=C(Nc1ccc(Oc2ccccc2)cc1)C1CCN(S(=O)(=O)c2ccccc2)CC1 0.841%, Cc1oc2ccc(O)c(CN3CCN(Cc4ccccc4)CC3)c2c1C(=O)Nc1cccc(Cl)c1C -3.74%, CCCN(C(=O)c1nn(-c2ccc(C)cc2)c(=O)c2c1c1ccccc1n2C)c1ccccc1C -2.94%, CC(=O)c1cc(-c2ccc(F)cc2)n(CCC(=O)NCc2ccc(C)cc2)c1C -5.88%, Cc1c(Cl)cccc1NC(=O)CN1C(=O)CSc2ccc(S(=O)(=O)N3CCCC3)cc21 -27.8%, CCOc1ccc(NC(=O)c2cnn3c(C(F)F)cc(-c4ccc(C)cc4)nc23)cc1 -17.3%, Cc1ccccc1CCNCc1c(C(=O)O)c(C)n(Cc2c(F)cccc2Cl)c1C -12.7%, CCc1ccc(Sc2cc(C(=O)NCCCN3CCCC(C)C3)c3ccccc3n2)cc1 (stereo not drawn) -10.8%, Clc1ccc(CN2CCc3nc(Nc4ccc5c(c4)OCCO5)ncc3C2)cc1 -2.54%, COc1ccccc1CNc1nc(-c2ccco2)nn1S(=O)(=O)c1ccc(C)cc1 5.92%, CCOc1ccccc1CN(CCc1ccc2c(c1)OCO2)Cc1cc(OC)c(OC)cc1OC -1.39%, CC(=O)Nc1ccc2nc(SCc3ccccc3)sc2c1 -25%, COC(=O)c1cc(Cl)ccc1NC(=O)Cn1c(C)cc(C)c(C#N)c1=O -7.42%, CC(C)NC(=O)c1nn(C)c2c1CS(=O)(=O)c1ccccc1-2 -0.412%, CCn1c(SCC(=O)Nc2cccc(Cl)c2)nnc1-c1nonc1NC(C)=O -0.246%, O=C(c1ccc(F)cc1)N1c2ncnn2C2(CCCCC2)[C@@H]2CCCC[C@@H]21 -12.7%, COc1ccc(CNC(=O)C(=O)NCC(c2cccs2)S(=O)(=O)c2ccc(C)cc2)cc1 (stereo not drawn) 1.57%, Cc1ccccc1C(=O)NCc1ccc2c(c1)CCN2C(=O)c1ccccc1 -9.77%, CCn1c(=O)c2sccc2n2c(CCCC(=O)N3CCN(c4ccccc4OC)CC3)nnc12 -8.55%, CC(CNC(=O)c1ccc(Cn2c(SCc3ccccc3)nc3cccnc32)cc1)c1ccccc1 (stereo not drawn) 22.8%, COc1ccc(CCNC(=O)Cn2nnc(-c3cccc(C(F)(F)F)c3)n2)cc1OC 5.49%, COc1ccc(CNC(=O)c2cc(Nc3ccc(OC)cc3OC)nc3ccccc23)cc1 -5.58%, CCOC(=O)c1ccc(NC(=O)c2ccc3c(c2)CCN3S(=O)(=O)c2ccc(Cl)cc2)cc1 -12.5%, COc1cc2[nH]c(=O)n(Cc3ccc(C(=O)N4CCN(c5cccc(C)c5C)CC4)cc3)c(=O)c2cc1OC -4%, Cc1cccc(NS(=O)(=O)c2nnc(NC(=O)C3CCCCC3)s2)c1 3.85%, CC(C)c1nn2c(=O)cc(COC(=O)c3ccc(NC(=O)c4ccccc4Cl)cc3)nc2s1 -12.1%, O=C(CSc1n[nH]c(-c2ccccc2Cl)n1)N1CCN(c2ccc(F)cc2)CC1 10.7%, Cc1ccc(C)c(CN2C(=O)c3ccccc3Sc3ccc(C(=O)NCCCOC(C)C)cc32)c1 2.17%, CCOc1ccc(NC(=O)c2oc3ccccc3c2NC(=O)Cc2ccc(OC)c(OC)c2)cc1 30.2%, O=C(Nc1ccc(O)c(-c2nc3ccccc3o2)c1)c1cccs1 5.82%, COc1ccc2oc(=O)cc(CN3CCN(C(=O)c4ccccc4)CC3)c2c1 -3.67%, COc1cc(OC)c(N(C)C(=O)c2cc3c(s2)-c2ccccc2OC3)cc1Cl -19%, COc1ccc2c(CNCc3cccs3)c(C(=O)O)n(Cc3ccccc3C)c2c1 5.55%, CCC(Sc1nc2ncccc2[nH]1)C(=O)Nc1ccccc1F (stereo not drawn) -4.06%, CC(C)(C)c1cc(C(C)(C)C)c(NC(=O)c2c[nH]c3ccccc3c2=O)cc1O -10.6%, CCC(=O)NCc1nc2ccccc2n1Cc1ccccc1 7.88%, COCCCNc1nc2c(-c3cccc(Br)c3)nnn2c2ccccc12 -2.63%, Cn1nc(-c2ccccc2F)c2cc(C(=O)N3CCN(c4ccccc4F)CC3)sc21 0.356%, CCOc1ccc(NC(=O)c2cc3nc(-c4ccc(OC)cc4)cc(C(F)(F)F)n3n2)cc1 3.42%, Cc1c(NC(=O)Cc2ccccc2)cccc1-c1nc2cccnc2s1 3.05%, CCOC(=O)c1c(C)[nH]c(C)c1S(=O)(=O)N1CCC(C(=O)NCc2ccc(OC)cc2)CC1 -2.27%, COC(=O)c1ccc2c(=O)n(CCCCCC(=O)N3CCN(c4cccc(C)c4C)CC3)c(=O)[nH]c2c1 2.06%, CC(C)NC[C@@H](C(=O)N1CCN(c2ncnc3c2[C@H](C)C[C@H]3O)CC1)c1ccc(Cl)cc1 21.4%, CCOc1cc(CNc2ccc(O)cc2)cc(Cl)c1OCc1ccccc1 -11.5%, Cc1ccc(S(=O)(=O)N2CCCc3cc(NC(=O)c4cccc(Cl)c4)ccc32)cc1 9.01%, Cn1cccc1-c1cc2n(n1)CCC(=O)N2CC(=O)Nc1ccc(F)cc1Cl 0.329%, CCCCOc1ccc(C(=O)Nc2ccc3c(c2)N(C(C)=O)CCC3)cc1 -1.8%, Cc1cccc(-c2cc(-c3ccccc3)nc(SCC(=O)Nc3ccccc3)c2C#N)c1 3.13%, CCS(=O)(=O)N1CCc2cc(C(=O)NCc3ccc(C)cc3)ccc21 2.55%, O=C(CSc1nc2c([nH]c3ccccc32)c(=O)n1-c1ccc(F)cc1)Nc1ccc2c(c1)OCCO2 2.7%, Cc1ccc(NC(=O)CC(c2ccc(F)cc2)N2Cc3ccccc3C2=O)cc1C (stereo not drawn) -2%, Cc1c(C(=O)NCc2ccc(Cl)cc2)sc2nc3n(c(=O)c12)CCC3 14.1%, CCOC(=O)N1CCN(CCC(=O)Nc2cccc(F)c2)CC1 11.3%, COCCNC(=O)CN1C(=O)CCn2nc(-c3cn(C)c4ccccc34)cc21 1.96%, COc1ccc(-c2nc3n(n2)C(c2ccccc2)C(C(=O)Nc2cccnc2)=C(C)N3)cc1 (stereo not drawn) 6.19%, COc1ccc2c(Sc3ccc(C)cc3)c(C(=O)NC(C)c3ccccc3)[nH]c2c1 (stereo not drawn) 27.9%, COc1cc([C@@H]2Nc3c(F)cccc3[C@@H]3C=CC[C@@H]32)cc(Br)c1OC 8.8%, Cc1c(C(=O)O)oc2c1-c1nn(Cc3ccccc3Cl)cc1CC2 2.99%, Cc1ccc(CNC(=O)c2ccc3c(c2)NC(=O)C(CS(=O)(=O)Cc2cccc(F)c2)N3)cc1 (stereo not drawn) -8.08%, Cc1ccc(N2C(=O)C(CC(=O)Nc3ccc(F)cc3)N(Cc3ccc4c(c3)OCO4)C2=O)cc1 (stereo not drawn) -9.51%, CCc1nn(CC(=O)NCCCc2ccccc2)c(=O)c2cc3cc(F)ccc3n12 30.6%, CCOC(=O)CCNC(=O)N1CCN(S(=O)(=O)c2ccc3c(ccn3C)c2)CC1 -9.75%, Cc1ccc(Sc2ccc(N3CCC(C(=O)Nc4ccc(Cl)cc4)CC3)nn2)cc1 10.5%, COc1ccc(NC(=O)C2=CC(c3ccc4c(c3)OCO4)=NS(=O)(=O)N2C)cc1OC -3.12%, O=S(=O)(c1ccc(Cl)cc1)c1nc(-c2ccccc2F)oc1NCc1ccccc1 8.91%, Cc1ccc(C(=O)Nc2ccc(S(=O)(=O)N(Cc3ccccc3)c3ccccc3)cc2)cc1 -6.93%, O=C(CSCn1nnc2c(=O)[nH]c(Cc3ccc(F)cc3)nc21)Nc1ccccc1 3.56%, CCCCNC(=O)C1CCC(Cn2c(=O)c3sccc3n(CC(=O)Nc3ccccc3)c2=O)CC1 (stereo not drawn) -1.27%, N#Cc1ccc(NC(=O)C2Cc3ccccc3CN2S(=O)(=O)c2ccc(F)cc2)cc1 (stereo not drawn) 7.08%, Cc1cc(F)ccc1S(=O)(=O)Nc1cc2c(C(=O)O)c(C)oc2c2ccccc12 -0.732%, C[C@H](CCC(=O)O)[C@H]1CC[C@H]2[C@@H]3[C@H](O)C[C@@H]4C[C@H](O)CC[C@]4(C)[C@@H]3CC[C@]12C 3.24%, Cc1cc(N2CCN(c3cc(Cl)ccc3C)CC2)n2nc(-c3ccccc3)nc2n1 -19.7%
